According to the supplement of paper PMC11417369:
± gives the standard deviation of the averaged measurements. The list shows a part of the results.

The sequences below were run on PfAP2-I AP2 domain 3 (GST-tagged) (assay: gcPBM binding intensity (ln(normalized median fluorescence intensity)); higher = stronger DNA binding).
In short: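 Binding intensity values are the highest Masliner-normalised natural-log median intensity among replicate spots of either probe orientation. The binding step lasted 1 h in 1× PBS with 1% milk, 0.2 mg/ml BSA, 0.5% salmon testes DNA and 0.03% Triton X-100, using GST-tagged P. falciparum DNA-binding domains expressed in E. coli on an Agilent 4 × 180k array of primer-extended double-stranded 36-bp intergenic genomic probes plus negative controls. Alexa488 anti-GST antibody and a 488 nm scan detected bound protein.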

| Sequence | gcPBM binding intensity (ln) |
| --- | --- |
| TATACAACGTTAAGCACACACAAAAAAAATTTAATA [CACACA_site3086] | 8.61 ± 0.2 |
| AAAAAAAAAAAGAAGGAAACATTTGACCAAAAATAT [GTGCAC_negctrl_site404] | 7.82 ± 0.67 |
| ATTCTATACATATATATACACACGTAGTTTCTATTT [CACACA_site2223] | 7.83 ± 0.65 |
| GTTAATATACTTAATACACACACGAATATATATAAA [CACACA_site1181] | 8.04 ± 0.45 |
| ATATACTTACATATTACACACAATATTTTTAAATGT [CACACA_site3627] | 7.95 ± 0.59 |
| AAAGTAAAAAAAAAAACATGCACATATTTACTTTAT [TGCATGCA_site849] | 8.14 ± 0.79 |
| TTTTTTTTGGTTTTCATGCACACAATTTATAAATCT [CACACA_site3107] | 8.9 ± 0.54 |
| AAGGGAATATACCTTACACACAAAAATGCAGATATA [CACACA_site1451] | 7.66 ± 0.52 |
| CTAATCAAAATAAATTAACACACAATTTTAATATTG [CACACA_site7887] | 7.42 ± 0.57 |
| TTCGCTGTTTTAATTAGTACTTATATATAATATTAT [XGTACX_site1149] | 8.21 ± 0.57 |
| TATTGATATATATATATATATATATGTATATACTTA [GTGCAC_negctrl_site111] | 7.88 ± 0.4 |
| CTAAACCTTTTGAGCACACATATATATATATATATA [CACACA_site1782] | 9.53 ± 0.45 |
| TTTTTATTTTCATATGTGCACTTATATATATATATA | 10.82 ± 0.099 |
| TTTTTATATAAGAAAAAATTATAACAATTTGTTAAT [XGTACX_negctrl_site422] | 7.28 ± 0.46 |
| TATTATTATATATATAGTACATAAAATATAAAAAAA [XGTACX_site2060] | 7.79 ± 0.38 |
| ATGTCACAATTTTTCACACACAAAATTTAAATACAT [CACACA_site5168] | 8.04 ± 0.59 |
| TAATTATGCGGACACACACACACACCCAACTAAAAA [CACACA_site5427] | 8.16 ± 0.34 |
| GCATTATTATATATTTGTACATATTTTTTTTTAAAA [XGTACX_site5436] | 8.34 ± 0.35 |
| TTTTTTTTTTAAATGTGTCCTCATTATAATATATGT [XGTACX_site5331] | 7.94 ± 0.31 |

| Sequence | gcPBM binding intensity (ln) |
| --- | --- |
| TTTTTTAAATTATATTATAGCAAATAAATATTAAAA [CACACA_negctrl_site1655] | 7.39 ± 0.47 |
| AATAAAACATCATCATGTACAAAATTCGTCTTTGTA [XGTACX_site4821] | 7.5 ± 0.51 |
| AATTATATATAAAGAAGTACTATTTCAAGGAGTTTT [XGTACX_site3837] | 7.69 ± 0.57 |
| TCAAATTTTCAACATTGTACATAAATGTATAAATAT [XGTACX_site6042] | 7.57 ± 0.36 |
| CAAAATATATATGACACACACAAAAAAAGTATATTA [CACACA_site1589] | 7.79 ± 0.42 |
| TATTTGTTCTGATCCTTTTATTCAACTTTTTTTTTT [CACACA_negctrl_site978] | 7.82 ± 0.42 |
| GGCTAAAAGTTGCACACACACAAAAAAAAAAAAAAA [CACACA_site7531] | 8.72 ± 0.11 |
| ACCTTAATTATAATAACACACGAAAAGTGGACACAT [CACACA_site1750] | 8.49 ± 0.41 |
| TATTATAGTCCGACTTTTTAATTTCTTTATTGTTTT [CACACA_negctrl_site1381] | 7.53 ± 0.6 |
| TGAATATTCATATGCACACAAATTAATATACATAAT [CACACA_site442] | 8.675 ± 0.021 |
| TTTTATTTTTAAAATTGTACATTATTATTGTTATTT [XGTACX_site1439] | 7.58 ± 0.53 |
| AAATTTTAATTAGACTGTACACATTTTAGAATAATT [XGTACX_site4819] | 7.67 ± 0.49 |
| TTTTATGTTTTAAAATGTACGTGTCAATGAATAAGT [XGTACX_site6239] | 8.57 ± 0.42 |
| TTTAGATAATTCATTACACACATGTATATATATATA [CACACA_site3483] | 9.26 ± 0.25 |
| TAAGGAAGAAGAAAAAGTACTAAAGGTATAAATGCG [XGTACX_site2628] | 8.02 ± 0.52 |
| AACTTGTATATATACACACACACACTGTCTTTTTTT [CACACA_site1963] | 8.17 ± 0.76 |
| AGAACTTAATGCTGCACACAAAAAAAAGGAAAAATA [CACACA_site1353] | 9.03 ± 0.25 |
| TTCTTTAAAATGATATACGTTATAAATATATATATA [XGTACX_negctrl_site256] | 9.14 ± 0.099 |
| AAAAAAAAGTTGTAAGTGCATGTATATAATAATATT | 8.42 ± 0.54 |

| Sequence | gcPBM binding intensity (ln) |
| --- | --- |
| TGATCACATAATAAATGTACAAAAAAAAATTAATAA [XGTACX_site5867] | 7.53 ± 0.64 |
| CAATTTATAAAGAAAACACACATATACATAAATACA [CACACA_site4829] | 7.87 ± 0.41 |
| TATATATAATATAGTGCATGTAAAAAATAAACCATG [TGCATGCA_site932] | 9.375 ± 0.092 |
| TATATATATGGACACACACACATATATATATATTTT [CACACA_site5409] | 8.23 ± 0.67 |
| AAAATTAATATCTTGGTGCATTTTTTAATATTATTA [GTGCAC_site9638] | 9.88 ± 0.13 |
| ACAACTATTCATCATAGTACACGCATGATATATATA [XGTACX_site1539] | 8.16 ± 0.67 |
| TATAAATTAAAACATTGTACATTTTTATTATTATGT [XGTACX_site579] | 7.5 ± 0.54 |
| TATCTTACTTTTTGCACACACTAATATTATTGTTTA [CACACA_site4990] | 9.905 ± 0.007 |
| AAAAAAAAAATATATTGTACAATATTGTAGCTATAT [XGTACX_site7180] | 7.67 ± 0.49 |
| TTCAATAGTAAGTATACACACATATAAATAAATAAA [CACACA_site7295] | 7.83 ± 0.56 |
| TTTTTGTTATTTTTAGTGCAGAAGAATAAATTTTAA | 9.75 ± 0.071 |
| AAAATTTCTTATTTTGTACACACAATAAATATTCAC [CACACA_site8464] | 8.1 ± 0.16 |
| GCAACCTTGTGCAAATGTACAAAAAAAAAAAAAAAA [XGTACX_site679] | 9.29 ± 0.028 |
| TTTTTATTGTTGCTATATTTATAACAATTTATCATA [GTGCAC_negctrl_site75] | 7.88 ± 0.53 |
| ATATTGAAATGTTAATAGAAATATATGGTTAAATTG [XGTACX_negctrl_site212] | 7.53 ± 0.47 |
| ATAATAAGAAAAAAAAAAAAAAAAAAAAAAAAAAAA [TGCATGCA_negctrl_site377] | 8.21 ± 0.95 |
| ATGTATATAAATAGGTGTACATATAAGGTGTTAAGC [XGTACX_site5465] | 8.75 ± 0.69 |
| TACACAAACGTTATACGTACACAGGTTTTTCTTTTA [XGTACX_site5427] | 7.78 ± 0.45 |
| TTATATTTATATTTATGTACATATTTTGTGTGAAAA [XGTACX_site2367] | 8.23 ± 0.028 |
